Laboratory results as given in the supplement of paper PMC10126150.
Sequences with one replicate were seen in a single cluster, so their values are uncertain.

System: ATP
Test: switch fluorescence ratio, 500 uM ATP over buffer (Cy3 cluster intensity, sum of 5 cycles each) (fold (ratio)); higher = stronger signal-on switching upon ATP binding; sequences stand for … in TCGTCGGCAGCGTCAGATGTGTATAAGAGACAGTTTTTTTTTTTTTTTTTTTTTTTTT…TC
Settings: aptamer strand: ATP DNA aptamer (quencher-CACCTGGGGGAGTATTGCGGAGGAAGG + anchor), 100 nM annealed; ATP concentration: 500 uM; one replicate
Outline: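 Imaging in selection buffer was followed by imaging after 15 min with 500 uM ATP at 22 °C, for Cy3-labelled switching-strand clusters annealed to 100 nM quencher-labelled ATP aptamer on a modified Illumina MiSeq flow-cell. Five of these buffer/ATP cycles ran, separated by NaOH stripping and re-annealing. The fluorescence ratio per cluster is summed target-cycle over summed buffer-cycle Cy3 intensity, averaged per switch-domain sequence; clusters outside 100-1000 RFU were removed.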
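Further: ATP exposure 15 min at 22 °C before imaging.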

Sequence	switch fluorescence ratio
CAATGCGCTG	1
TGGCTGAGGC	0.981
GACGGGGTTT	1.67
CGCGAGGAGC	1.07
AAGCCGCCCG	1.06
TTCGACCCCA	1.07
GGAATAGTC	1.11
CGGAATTCTG	1.02
CTCTTATATC	1.05
CTCGTAACGT	1.03
TTAGGTGTG	0.977
GGGAGCCTAA	1
GTGCTCGGAT	0.964
TGGTAATTAA	1.01
GACACCAGTA	1.02
ATATAATTAT	0.949
GAAACCGGTG	0.981
AATGCGTTGG	0.965
ATTTCGCACG	1.03
TAGGTACATC	1.05
CGCACCTTGC	1.39
TCAGGATAC	1.6
GCCCTTTTTG	1.01

Sequence	switch fluorescence ratio
GGTTAGCGCC	0.975
GTAAACGGGA	1.03
TGGGAATTAG	0.987
ATTGAACG	1.08
ACGACTATCA	1.09
ACAGAGATCA	1
GTCATGGGTT	1.02
CAAGTTCCCC	1.14
ATATTAAGCT	1.07
TAGGTTGACT	0.997
GTTATCATGA	0.986
TGAAAGAATA	1.03
ACCAACCGCT	1.28
TTGGTGTCCT	1.04
GCCTAGGCGC	1.01
ACTGTGGTCG	1.04
GGGGTCTGAT	0.978
AATCCGGGG	1.03
CAACAGAATA	0.997
CGGCAGCTAT	2.1
CGGCAAAAAG	1.11
CTGAATGTTG	1.02
GGGACTCTCG	0.956

Sequence	switch fluorescence ratio
AGTTAAACGA	0.999
CCCGGGGTTA	1.03
TTTTATGG	0.965
CAGTATGAAG	0.972
CCCAGTACTT	1.33
AAATACCAA	0.985
AGCTTTGCGC	1.02
TGTCGCGGGT	1.02
TGCCTAGCTG	1.04
CAAAGCTGTT	1.01
CGTAACCAAG	1.03
CGACGTAAAG	1.12
TGCGTATCAG	0.949
GCTATTAACT	1
GGGCGGTTCC	1.03
TTATCCTCCC	1.39
TTTTGCGAGT	0.959
TAGAAAGTTA	1.08
AATTGTATTG	0.991
ACCTTAAGTT	0.99
AATGGCCGTA	1.02
TTGAAGGTAT	1.14
ATCATTGACC	1.11

Sequence	switch fluorescence ratio
ATAAACGTAA	1.24
CAGGAACCCA	0.99
GTTGTATGGG	0.949
TACGCTGTCA	0.991
TCATTGGCAG	1.03
TGGTTGGAAT	0.986
TACACAGCCT	1.08
CCGTCGTTCT	1.04
GCGGTATTTT	0.953
TACTTCCAAC	1.24
GATCCTAACT	1.03
TCTCTTGAGC	1.06
TGATTGTTCG	1.01
TATGTTTCTT	1.03
TGACCCGACC	1.33
CAGTGCCTGC	0.945
ATACTTTTAT	1.07
CGGACGCACC	6.35
GGGGATTCTA	0.963
CGTACTGATG	0.992
TTTATACATC	1.05
GAATTTGCCG	0.971
AAGTAGGGTG	0.94

Sequence	switch fluorescence ratio
CAGTATTTGT	0.999
CGAAAGGCGT	1.01
TGGAATATAT	0.975
GTTTAGGCAG	0.993
ATCTTTTTCG	1
GGGTCGGATT	0.956
ACAATGCCTC	1.02
AGCGGGGTTA	1.05
AAGTCGTGAG	1.05
TAAACGGA	1.01
TTGGTAAATT	1.04
GGTGCAAGGG	1.08
GAGTGGCGT	0.967
TCCTTGGCGT	0.975
TGGCTGAGTC	1
TACAACCGTT	1.01
CGAATACAGA	1.05
GGTGTATATT	0.986
CTATTGAAGG	0.98
CTTTATGACC	0.989
GTAGTTATAA	1
GGGAAGTACC	1.25
CAATGCCTTG	1.02

Sequence	switch fluorescence ratio
CGCAGCTGGA	1.1
TACGGGTGTC	1.12
TCAGCGTCG	1.02
ACGTACTCAA	1.31
ATTTAGCAAT	2.73
GCTGCTCTTT	0.989
CCGCGGTGCG	1.56
CTTTGTAACA	0.98
GCAACTAGGC	1.19
TCCATGCAGG	1.03
AAGGACAATT	1
AGGCCGAG	0.99
GCGGGCATGC	1.11
TGATGGTGTT	1.04
ACTCTGGGAA	1.15
GATGTAAGTT	0.981
TGCTTCGTTA	1.09
CTCGTATGGT	0.966
TGAAGCTTAG	1.07
TTCGGGATGT	1.01
GCGATATCTC	3.45
GGTAGGGCCC	1
ACAAGATTAA	0.975

Sequence	switch fluorescence ratio
GACCAATGGA	0.991
TGGTGCATCT	1
CTTGGCTACT	1.11
CAATCCTGTT	1.03
TGACCTCGTT	1.03
GACATTGTT	1.01
TTCAGAAAAT	0.968
GGATAACTTG	0.98
TTCACCACA	1.02
TTTTACTTCC	1.51
CTCTTGCGTC	1.08
ATTCTGTCAC	0.986
ACCGAAACTT	1.09
GTGAAATGCG	0.991
GTGGTGGTCT	1.04
GGTCGAACTG	1.01
TTATCCTTG	1.06
ACGTTCAACC	1.15
ACGAGAACAG	1.17
